Results reported in the supplement of paper PMC10600219.
Structures can show the parent of a compound that is named as a salt. Over roughly 2,800 compounds, “cell viability relative to vehicle” has its median near 0.98; the lowest 2% begin near 0.45. Some of the results follow.

System: NCI-H2228 alectinib-DTP
Experiment: cell viability relative to vehicle (fraction of vehicle); NCI-H2228 is an ALK-positive lung cancer line and DTP means drug-tolerant persister; higher = less growth inhibition
Conditions: 100 nM; treatment time 6 days
Summary of the method: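 Drug-tolerant persister NCI-H2228 cells, produced by 13 days in 1000 nM of a targeted drug, and their parental counterparts were seeded into 384-well plates and, the following day, given the 3114-agent TargetMol anti-cancer compound library at 100 nM or DMSO vehicle. After 6 days, the CellTiter-Glo 3D Cell Viability Assay was used to read ATP. Each entry reports viability compared with vehicle-treated cells.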

Structure (SMILES)	cell viability
CC(=O)OC(CC(C)C1=C2C[C@H](O)C3[C@@]4(C)CCC(=O)C(C)(C)C4CC[C@]3(C)[C@@]2(C)CC1)C1OC1(C)C (stereo not given in full) [Alisol B 23-acetate]	1.05
O=C(/C=C/c1ccccc1)NC(NC(=S)Nc1cccc2cccnc12)C(Cl)(Cl)Cl (stereo not given) [Salubrinal]	0.95
C=C(C)[C@@H]1CC[C@]2(C(=O)O)CC[C@]3(C)[C@H](CC[C@@H]4[C@@]5(C)CCC(=O)C(C)(C)[C@@H]5CC[C@]43C)[C@@H]12 [Betulonic acid]	1.08
CO[C@H]1C[C@@H]2CC[C@@H](C)[C@@](O)(O2)C(=O)C(=O)N2CCCC[C@H]2C(=O)O[C@H]([C@H](C)C[C@@H]2CC[C@@H](OCCO)[C@H](OC)C2)CC(=O)[C@H](C)/C=C(\C)[C@@H](O)[C@@H](OC)C(=O)[C@H](C)C[C@H](C)/C=C/C=C/C=C/1C [Everolimus]	0.74
Fc1ccc(Cl)cc1-c1nc(Nc2ccncc2)c2nccnc2n1	1.14
C=CC1=C(C)c2cc3[nH]c(cc4nc(cc5[nH]c(cc1n2)c(C)c5CCC(=O)O)C(CCC(=O)O)=C4C)c(C)c3C=C [Protoporphyrin IX]	0.979
CC1CNc2c(cccc2S(=O)(=O)N[C@@H](CCCNC(=N)N)C(=O)N2CC[C@@H](C)C[C@@H]2C(=O)O)C1 (stereo not given in full) [Argatroban]	1.13
CN(C)CCN(Cc1ccccc1)c1ccccn1 [Tripelennamine hydrochloride]	1.06
COc1ccccc1N1CCN(CCN(C(=O)C2CCCCC2)c2ccccn2)CC1	1.08
Nc1ccn([C@@H]2O[C@H](CO)[C@@H](O)C2(F)F)c(=O)n1 [Gemcitabine]	0.678
Nc1ccn([C@@H]2O[C@H](CO)[C@@H](O)C2(F)F)c(=O)n1 [Gemcitabine HCl]	0.778
Cc1cc(/C=C2/SC(=S)NC2=O)c(C)n1-c1cccnc1 [Optovin]	0.918
C[n+]1cc2c3c(ccc2c2ccc4cc5c(cc4c21)OCO5)OCO3 [Sanguinarine chloride]	1.01
C[C@@H](NC(=O)c1ncnc(N)c1Cl)c1ncc(C(=O)Nc2cc(C(F)(F)F)c(Cl)cn2)s1	1.07
C=CC(=O)N1CC[C@H](n2nc(C#Cc3cc(OC)cc(OC)c3)c3c(N)ncnc32)C1	0.715
Nc1ncnc2c1ncn2[C@@H]1O[C@H](CO)[C@@H](O)[C@H]1O [Adenosine]	0.991
CC(C)=CCC[C@](C)(O[C@@H]1O[C@H](CO)[C@@H](O)[C@H](O)[C@H]1O)[C@H]1CC[C@]2(C)[C@@H]1[C@H](O)C[C@@H]1[C@@]3(C)CC[C@H](O)C(C)(C)[C@@H]3[C@@H](O)C[C@]12C [Ginsenoside F1]	1.12
O=C1C[C@@H](c2ccc(O)cc2)Oc2cc(O)ccc21 [Liquiritigenin]	0.852
COc1ccc(S(=O)(=O)Nc2cc(-c3c(O)ccc4ccccc34)c(O)c3ccccc23)cc1	0.845
O=C1Nc2ccccc2/C1=C1/Nc2ccccc2C1=O [Indirubin]	0.944
N=C(N)NC(=O)Cc1c(Cl)cccc1Cl [Guanfacine hydrochloride]	0.913
O=C(O)C(O)Cc1ccc(O)c(O)c1 (stereo not given) [Sodium Danshensu]	0.971
COc1cc(C(=O)O)ccc1NC(=O)[C@@H]1N[C@@H](CC(C)(C)C)[C@](C#N)(c2ccc(Cl)cc2F)[C@H]1c1cccc(Cl)c1F [Idasanutlin]	0.996
CC1(C)CCC(C)(C)c2cc(NC(=O)c3ccc(C(=O)O)cc3)ccc21 [Tamibarotene]	0.771
O=C(NCC(=O)N1CC[C@H](N[C@H]2CC[C@@](O)(c3ccc(-c4ncccn4)cn3)CC2)C1)c1cccc(C(F)(F)F)c1	1.02

Structure (SMILES)	cell viability
C=C1C[C@@]23CC[C@H]4[C@@](C)(CCC[C@@]4(C)C(=O)O)[C@@H]2CC[C@]1(O)C3 [Steviol]	1.05
Oc1ccc(OC2CCCCO2)cc1 (stereo not given) [Deoxyarbutin]	1.03
Nc1cccc2c1C(=O)N(C1CCC(=O)NC1=O)C2=O (stereo not given) [Pomalidomide]	1.04
COc1ccc(CC(C)(C)NC[C@H](O)c2cc(O)cc3c2OCC(=O)N3)cc1 [Olodaterol]	1.01
CN(C)CCOC(c1ccccc1)c1ccccc1 [Diphenhydramine hydrochloride]	1.01
CN1CCN(C(=O)C2C(C(=O)O)[C@H]3CC[C@@H]2O3)CC1 (stereo not given in full)	1.01
CN(C)CC/C=C1/c2ccccc2Sc2ccc(Cl)cc21 [Chlorprothixene]	0.945
Cn1cc(CNCC2CCN(c3ncc(C(=O)NO)cn3)CC2)c2ccccc21 [Quisinostat]	0.358
CC(=O)[C@H]1CC[C@H]2[C@@H]3CCC4=CC(=O)CC[C@]4(C)[C@H]3CC[C@]12C [Progesterone]	1.09
O=C(NO)c1cnc(NC2(c3ccccc3)CC2)nc1	1.01
CCN(CC)C(=O)c1cccc(C)c1 [N,N-Diethyl-m-toluamide]	1
O=c1[nH]c(=S)[nH]c(-c2ccccc2)c1Cc1c(O)ccc2ccccc12 [Cambinol]	1.04
CCN(CC)C(=O)c1cccnc1 [Nikethamide]	1.08
CC(C)(C)n1nc(Cc2cccc3ccccc23)c2c(N)ncnc21	0.853
COc1ccc(C(=C2C(=O)Nc3ccccc32)c2ccc(OC)cc2)cc1	0.929
CCCN(CCC)S(=O)(=O)c1ccc(C(=O)O)cc1 [Probenecid]	1.07
C[C@]12CC[C@@H]3c4ccc(O)cc4CC[C@H]3[C@@H]1CC[C@@H]2O [Estradiol]	1.1
CCNC(=O)c1[nH]nc(-c2cc(Cl)c(O)cc2O)c1-c1ccc(OC)cc1	1.14
CNC(=O)CNc1cnc2ccc(-c3ccc(OC)c(OC)c3)cc2n1	1.08
C[C@H](NC(=O)/C(C#N)=C/c1cccc(Br)n1)c1ccccc1	1.04
C[C@@H]1CC[C@@]2(NC1)O[C@H]1C[C@H]3[C@@H]4CC=C5C[C@@H](O[C@@H]6O[C@H](CO)[C@H](O)[C@H](O[C@@H]7O[C@H](CO)[C@@H](O)[C@H](O)[C@H]7O)[C@H]6O[C@@H]6O[C@@H](C)[C@H](O)[C@@H](O)[C@H]6O)CC[C@]5(C)[C@H]4CC[C@]3(C)[C@H]1[C@@H]2C [Solasonine]	1.2
CCN(CC)CC(O)CNc1ccc(NCC2CO2)c2c1C(=O)c1ccccc1C2=O (stereo not given)	0.831
c1ccc(-c2[nH]ncc2-c2ccnc3ccccc23)nc1	1.17
N[C@@H](CCC(=O)N[C@@H](CS)C(=O)NCC(=O)O)C(=O)O [Glutathione]	1.12
C#Cc1cccc(Nc2ncnc3cc4c(cc23)OCCOCCOCCO4)c1 [Icotinib]	0.96

Structure (SMILES)	cell viability
C=CC(=O)Nc1cc(Nc2nccc(-c3cn(C)c4ccccc34)n2)c(OC)cc1N(C)CCN(C)C [Osimertinib mesylate]	0.858
C=CC(=O)Nc1cc(Nc2nccc(-c3cn(C)c4ccccc34)n2)c(OC)cc1N(C)CCN(C)C [Osimertinib]	0.742
Cc1ccc(NCCCc2ccccc2)c(N)c1	1.03
CCc1c(C)[nH]c2c1C(=O)C(CN1CCOCC1)CC2 (stereo not given) [Molindone hydrochloride]	1.14
CC(C)(NS(=O)(=O)c1ccc2c(Cl)cnc(N=C(N)N)c2c1)C(=O)O	1.04
O=[N+]([O-])c1cncn1CCN1CCOCC1 [Nimorazole]	0.869
C=CC(=O)Nc1cc(Nc2nccc(-c3c[nH]c4ccccc34)n2)c(OC)cc1N(C)CCN(C)C	0.541
O=C(O)c1ccc(-c2c[nH]c3ncc(-c4ccccc4)cc23)cc1C1CCCC1	1.04
Cc1ncc(CO)c(CO)c1O [Pyridoxine]	1.13
Cc1ncc(CO)c(CO)c1O [Metadoxine]	0.888
O=C(N1CCCC1)n1ccnn1	0.961
Cc1cc(Nc2ncc3c(n2)N(C)C(=O)N(c2cc(NC(=O)c4cccc(C(F)(F)F)c4)ccc2C)C3)n(C)n1 [Pluripotin]	0.301
N=C(N)NS(=O)(=O)c1ccc(N)cc1 [Sulfaguanidine]	1.06
CSCC1CN(/N=C/c2ccc([N+](=O)[O-])o2)C(=O)O1 (stereo not given) [Nifuratel]	0.881
O=C(Nc1nc2cccc(-c3ccc(CN4CCS(=O)(=O)CC4)cc3)n2n1)C1CC1 [Filgotinib]	1.03
COc1ccc2ccc(=O)oc2c1CC=C(C)C [Osthole]	0.976
CNS(=O)(=O)CCc1ccc2[nH]cc(C3CCN(C)CC3)c2c1 [Naratriptan]	1.04
CC(=O)Oc1ccccc1C(=O)O [Aspirin]	1.15
Nc1nc(NC2CC2)cc(-c2cccc(Cl)c2Cl)n1	0.955
CC(C)=CC[C@@H](O)C1=CC(=O)c2c(O)ccc(O)c2C1=O (racemic) [(±)-Shikonin]	1.02
CC(C)=CCC[C@](C)(O[C@@H]1O[C@H](CO)[C@@H](O)[C@H](O)[C@H]1O)[C@H]1CC[C@]2(C)[C@@H]1[C@H](O)C[C@@H]1[C@@]3(C)CC[C@H](O)C(C)(C)[C@@H]3[C@@H](O[C@@H]3O[C@H](CO)[C@@H](O)[C@H](O)[C@H]3O[C@@H]3O[C@@H](C)[C@H](O)[C@@H](O)[C@H]3O)C[C@]12C [Ginsenoside Re]	0.852
CC1=C(/C=C/C(C)=C/C=C/C(C)=C/C(=O)O)C(C)(C)CCC1 [Tretinoin]	0.87
C[C@]12CC[C@H](O)CC1=CC[C@@H]1[C@@H]2CC[C@]2(C)C(n3cnc4ccccc43)=CC[C@@H]12 [Galeterone]	0.91
C[C@H](NP(=O)(OC[C@H]1O[C@@H](n2ccc(N)nc2=O)C(F)(F)[C@@H]1O)Oc1ccccc1)C(=O)OCc1ccccc1 (stereo not given in full) [Acelarin]	0.775
O=C(NO)c1cccc(C(=O)NCCc2ccccc2)c1	1.01
